# The other results are listed elsewhere or left out. The list includes weakly bound sequences.
# Biological target: T1, MBP-FoxP3dN (UniProt Q99JB6)
# T1 sequence: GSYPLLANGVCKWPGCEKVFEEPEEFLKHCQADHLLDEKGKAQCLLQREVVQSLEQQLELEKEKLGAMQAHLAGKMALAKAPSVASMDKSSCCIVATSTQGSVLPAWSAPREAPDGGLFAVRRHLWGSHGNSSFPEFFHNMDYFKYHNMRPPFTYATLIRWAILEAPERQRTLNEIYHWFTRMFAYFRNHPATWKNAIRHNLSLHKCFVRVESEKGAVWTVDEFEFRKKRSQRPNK
# Assay: PD-seq (MBP pull-down with sequencing)
# Settings: 20 mM Tris-HCl pH 7.5, 100 mM NaCl, 1.5 mM MgCl2, 0.4 uM protein, 0.1 uM dsDNA library, 30 min, room temperature, amylose pull-down; high values mean tight binding; double strand, one strand shown
row,Sequence,binding signal (RPM ratio (pull-down/input))
1,GATGATTGTTCTCCCAGCTGATGAATTGCATAAATCGAGTAAACAAATTTTCCTAATCTTTCTGTTCAAGCGCCATCTAC,0.672
2,GATGATTGTTCTCCCAGCTGATGAATTTGCGTGCTCGAGTAAACAAATTTTCCTAATCTTTCTGTTCAAGCGCCATCTAC,3.24
3,GATGATTGTTCTCCCAGCTGATGAATTCACAATATCGAGTAAACAAATTTTCCTAATCTTTCTGTTCAAGCGCCATCTAC,0.837
4,GATGATTGTTCTCCCAGCTGATGAATTGTTAACCTCGAGTAAACAAATTTTCCTAATCTTTCTGTTCAAGCGCCATCTAC,0.487
5,GATGATTGTTCTCCCAGCTGATGAATTATCTTACTCGAGTAAACAAATTTTCCTAATCTTTCTGTTCAAGCGCCATCTAC,0.32
6,GATGATTGTTCTCCCAGCTGATGAATTACGCTCCTCGAGTAAACAAATTTTCCTAATCTTTCTGTTCAAGCGCCATCTAC,0.968
7,GATGATTGTTCTCCCAGCTGATGAATTTTTCGATTCGAGTAAACAAATTTTCCTAATCTTTCTGTTCAAGCGCCATCTAC,0.26
8,GATGATTGTTCTCCCAGCTGATGAATTCCACGAATCGAGTAAACAAATTTTCCTAATCTTTCTGTTCAAGCGCCATCTAC,0.229
9,GATGATTGTTCTCCCAGCTGATGAATTCGCAACGTCGAGTAAACAAATTTTCCTAATCTTTCTGTTCAAGCGCCATCTAC,1.39
10,GATGATTGTTCTCCCAGCTGATGAATTCCTAACATCGAGTAAACAAATTTTCCTAATCTTTCTGTTCAAGCGCCATCTAC,0.48
11,GATGATTGTTCTCCCAGCTGATGAATTTATTCTCTCGAGTAAACAAATTTTCCTAATCTTTCTGTTCAAGCGCCATCTAC,0.556
12,GATGATTGTTCTCCCAGCTGATGAATTGAAAGTATCGAGTAAACAAATTTTCCTAATCTTTCTGTTCAAGCGCCATCTAC,0.38
13,GATGATTGTTCTCCCAGCTGATGAATTACGTGCATCGAGTAAACAAATTTTCCTAATCTTTCTGTTCAAGCGCCATCTAC,1.6
14,GATGATTGTTCTCCCAGCTGATGAATTGGCTCGTTCGAGTAAACAAATTTTCCTAATCTTTCTGTTCAAGCGCCATCTAC,0.299
15,GATGATTGTTCTCCCAGCTGATGAATTGTTCTCGTCGAGTAAACAAATTTTCCTAATCTTTCTGTTCAAGCGCCATCTAC,0.355
16,GATGATTGTTCTCCCAGCTGATGAATTTTGGACCTCGAGTAAACAAATTTTCCTAATCTTTCTGTTCAAGCGCCATCTAC,0.321
17,GATGATTGTTCTCCCAGCTGATGAATTTCGAGACTCGAGTAAACAAATTTTCCTAATCTTTCTGTTCAAGCGCCATCTAC,0.481
18,GATGATTGTTCTCCCAGCTGATGAATTTGACCTATCGAGTAAACAAATTTTCCTAATCTTTCTGTTCAAGCGCCATCTAC,0.477
19,GATGATTGTTCTCCCAGCTGATGAATTGTCGTTTTCGAGTAAACAAATTTTCCTAATCTTTCTGTTCAAGCGCCATCTAC,1.22
20,GATGATTGTTCTCCCAGCTGATGAATTTTGTACTTCGAGTAAACAAATTTTCCTAATCTTTCTGTTCAAGCGCCATCTAC,1.27

row,Sequence,binding signal (RPM ratio (pull-down/input))
1,GATGATTGTTCTCCCAGCTGATGAATTTCATCGTTCGAGTAAACAAATTTTCCTAATCTTTCTGTTCAAGCGCCATCTAC,0.624
2,GATGATTGTTCTCCCAGCTGATGAATTCAAGGCGTCGAGTAAACAAATTTTCCTAATCTTTCTGTTCAAGCGCCATCTAC,0.468
3,GATGATTGTTCTCCCAGCTGATGAATTCGGTAGATCGAGTAAACAAATTTTCCTAATCTTTCTGTTCAAGCGCCATCTAC,0.394
4,GATGATTGTTCTCCCAGCTGATGAATTGTGTGGCTCGAGTAAACAAATTTTCCTAATCTTTCTGTTCAAGCGCCATCTAC,1.97
5,GATGATTGTTCTCCCAGCTGATGAATTCGGGGTTTCGAGTAAACAAATTTTCCTAATCTTTCTGTTCAAGCGCCATCTAC,0.644
6,GATGATTGTTCTCCCAGCTGATGAATTAGCTCCGTCGAGTAAACAAATTTTCCTAATCTTTCTGTTCAAGCGCCATCTAC,0.254
7,GATGATTGTTCTCCCAGCTGATGAATTGATACGTTCGAGTAAACAAATTTTCCTAATCTTTCTGTTCAAGCGCCATCTAC,0.958
8,GATGATTGTTCTCCCAGCTGATGAATTACCATATTCGAGTAAACAAATTTTCCTAATCTTTCTGTTCAAGCGCCATCTAC,0.453
9,GATGATTGTTCTCCCAGCTGATGAATTTCTAACATCGAGTAAACAAATTTTCCTAATCTTTCTGTTCAAGCGCCATCTAC,0.367
10,GATGATTGTTCTCCCAGCTGATGAATTCCAGAAATCGAGTAAACAAATTTTCCTAATCTTTCTGTTCAAGCGCCATCTAC,0.207
11,GATGATTGTTCTCCCAGCTGATGAATTTGATGAATCGAGTAAACAAATTTTCCTAATCTTTCTGTTCAAGCGCCATCTAC,0.382
12,GATGATTGTTCTCCCAGCTGATGAATTTACCCCCTCGAGTAAACAAATTTTCCTAATCTTTCTGTTCAAGCGCCATCTAC,0.443
13,GATGATTGTTCTCCCAGCTGATGAATTAGCGTTGTCGAGTAAACAAATTTTCCTAATCTTTCTGTTCAAGCGCCATCTAC,1.33
14,GATGATTGTTCTCCCAGCTGATGAATTTAGACCTTCGAGTAAACAAATTTTCCTAATCTTTCTGTTCAAGCGCCATCTAC,0.456
15,GATGATTGTTCTCCCAGCTGATGAATTGTGCCATTCGAGTAAACAAATTTTCCTAATCTTTCTGTTCAAGCGCCATCTAC,6.37
16,GATGATTGTTCTCCCAGCTGATGAATTTAAGAACTCGAGTAAACAAATTTTCCTAATCTTTCTGTTCAAGCGCCATCTAC,0.199
17,GATGATTGTTCTCCCAGCTGATGAATTAGCTAATTCGAGTAAACAAATTTTCCTAATCTTTCTGTTCAAGCGCCATCTAC,0.301
18,GATGATTGTTCTCCCAGCTGATGAATTCTCAAAATCGAGTAAACAAATTTTCCTAATCTTTCTGTTCAAGCGCCATCTAC,0.201
19,GATGATTGTTCTCCCAGCTGATGAATTACAATCGTCGAGTAAACAAATTTTCCTAATCTTTCTGTTCAAGCGCCATCTAC,0.704
20,GATGATTGTTCTCCCAGCTGATGAATTTGCCGTATCGAGTAAACAAATTTTCCTAATCTTTCTGTTCAAGCGCCATCTAC,1.13
